Several values for one entry are separate records, joined by “and”; a condition that tells them apart may be missing. Identical values can stand only once. The campaign covered roughly 360,000 compounds. About 7,500 (2.1%) were called active. Not shown: some 20% with an inconclusive outcome. Calls follow the shape of the dose curve; as a rule, active = well fitted inhibition curve with a large enough effect; inconclusive = small, poorly fitted or top-dose-only effect, or effect the other way; inactive = flat fitted curve, though single readings scatter. The list shows a part of the results, in another mix than the full data. Some structures have more than one record in an assay (separate samples or runs), and their calls can disagree.
test: Nrf2 qHTS screen for inhibitors; settings: A549 ARE-Fluc reporter, luciferase luminescence, 18-24 h; series mostly up to 46 µM; activity change, negative = inhibition: at the top concentration; also: nearly all actives have a fitted effect of over 60% in size
Method in brief: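 Nrf2 function is reported as luminescence of an ARE-controlled luciferase in A549 cells. Compounds were tested at several concentrations, and a CellTiter-Fluor read on the same wells flagged cytotoxicity.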
% is scaled to controls: 0 for no effect and ±100 for the full control effect; potency is read from the fitted curve at half-maximal effect.

Activity change, negative = inhibition, inactive:
O=C(CN1C(=O)COc2ccc(S(=O)(=O)N3CCCCC3)cc21)NCc1ccc(Cl)cc1 -2.46%
Cc1ccc(NC(=O)CSc2nc(-c3ccco3)cc(C(F)(F)F)n2)cc1C -3.62%
COc1ccc(C2=Nn3c(nnc3-c3ccc(OC)cc3)SC2)cc1 17.4%
CS(=O)(=O)c1ccc(CNC(=O)[C@]2(C(F)(F)F)C[C@H](CCc3ccccc3)CCCO2)cc1 -23.9%
C=CCC[C@@H](Cc1ccc(F)cc1)C(=O)OC[C@H](Cc1c[nH]c2ccccc12)NC(=O)[C@@H](CC=C)CC(=O)N[C@H](CO)Cc1ccccc1 -19.5%
COc1cccc(CNC(=O)CCS(=O)(=O)c2ccc3c(c2)CC(C)N3C(=O)C2CC2)c1 (stereo not drawn) 20.8%
Cn1cc(/C=C2\SC(=O)N(c3ccccc3)C2=O)c2ccccc21 1.59%
CC(C)(C)OC(=O)C[C@@H]1C/C=C\C[C@H](CC(=O)N(CCO)Cc2ccccc2)C(=O)NC[C@H](c2ccccc2)OC1=O -11%
CC(=O)Nc1ccc(SCC(CC(C)C)N2CCN(CC(C)C)CCC2=O)cc1 (stereo not drawn) 10.8%
CCOC(=O)c1cc2c(c(-c3ccccc3)n1)[C@@H](CCO)N(S(=O)(=O)C(C)(C)C)C2 -6.14%
COc1ccccc1N1CCN(C(=O)c2ccc3c(c2)CCN3S(=O)(=O)c2ccccc2)CC1 -2.06%
O=C(NCc1ccccc1)C1=C[C@@H](c2ccc(C(F)(F)F)cc2)C[C@@H](OCCCCO)O1 2.73%
CCO/C=C1\C(=O)N(CC)c2ccccc21 -17.2%
CC(=O)Nc1ccc(Nc2nnc(-c3ccc(C)c(S(N)(=O)=O)c3)c3ccccc23)cc1 -23.6%
COc1ccc(N(CC(=O)N2CCN(c3ccccc3F)CC2)S(=O)(=O)c2c(C)n[nH]c2C)cc1 -9.35%
Oc1ccc(C[C@H]2CNCCN2CCc2cc(C(F)(F)F)cc(C(F)(F)F)c2)cc1 7.64%
C[C@]12C(=O)N(c3cccc(F)c3)C(=O)N1[C@H]1c3ccccc3OC[C@@H]1[C@H]2c1ccccc1 -23.5%
CCOC(=O)c1[nH]cnc1C(=O)Nc1ccc(F)cc1 -17.4%
CCC(=O)Nc1nnc(S(=O)(=O)N2CCc3ccccc32)s1 -9.43%
O=C1NC[C@@H](c2ccccc2)OC(=O)[C@H](Cc2ccc(F)cc2)CC/C=C/C[C@H]1CC(=O)N(CCO)Cc1ccccc1 -7.42%
COc1ccccc1OCC(O)CN1CCN(CC(=O)Nc2c(C)cccc2C)CC1 (stereo not drawn) 4.87%
CCN(c1ccccc1)S(=O)(=O)c1nnc(NC(=O)c2ccco2)s1 7.47%
O=C1CCCC2=C1[C@@]1(CCC(c3ccccc3)C1)N=C(Nc1nc3ccccc3o1)N2 (stereo partly drawn) -25.3%
COC(=O)c1cc(S(=O)(=O)NCC2CCN(Cc3ccc(C)cc3)CC2)c[nH]1 -5.69%
NC(=O)C1=C[C@H](c2csc3ccccc23)C[C@H](OCc2ccc(CO)cc2)O1 21.7%
COc1ccc(C2c3ccc4ccccc4c3Oc3ncn(CCN4CCOCC4)c(=N)c32)cc1OC (stereo not drawn) -0.509%
CC(=O)N1CCC[C@H]1C(=O)O -8.87%
CC(=O)C[C@H](O)CC(=O)[C@H]1OC(=O)[C@@H](C)C/C=C\Cc2ccccc21 11.3%
N#Cc1ccccc1CSc1nc2ncc(Br)cc2[nH]1 12.7%
COCCNC(=O)Cn1ccc2cc(S(=O)(=O)N3CCCCCC3)ccc21 -3.89%
COc1ccc(NC(=O)Cn2c(=O)n(CCC(=O)NCC3CCCO3)c(=O)c3cc(OC)c(OC)cc32)cc1 (stereo not drawn) 0.0566%
CCOc1ccc(CNC(=O)C2CCCN(c3nnc(C)c4c(C)n(-c5ccccc5)nc34)C2)cc1 (stereo not drawn) -21.1%
O=C(COc1ccccc1)Nc1nnc(S(=O)(=O)Nc2ccccc2)s1 -16.8%
C[C@H]1c2cccc(O)c2C(O)=C2C(=O)C3(O)C(O)=C(C(N)=O)C(=O)[C@@H](N(C)C)[C@@H]3[C@@H](O)[C@@H]21 (stereo partly drawn) -12.9%
CCc1nonc1NC(=O)c1oc2cc(C)c(C)cc2c1C 2.77%
O=C(CNS(=O)(=O)c1cccs1)N1CCN(c2ccccc2F)CC1 12.3% [at 9.27 µM]
O=C(CCS(=O)(=O)c1cc2c(cc1Cl)NC(=O)CO2)NCc1ccccc1 1.79%
O=C(C[C@H]1C/C=C\CC[C@H](Cc2ccc(F)cc2)C(=O)OC[C@@H]2CCCN2C1=O)N[C@H](CO)Cc1ccccc1 6.22%
CCCN1/C(=C(\C#N)C2=NS(=O)(=O)c3ccccc32)N(C)c2ccccc21 -0.921%
COc1cccc(C(=O)Nc2nnc(S(=O)(=O)N3CCOCC3)s2)c1 13.3%
O=C(NCc1nc2ccccc2[nH]1)C1=C[C@H](c2ccc(C(F)(F)F)cc2)C[C@H](OCCCCO)O1 4.78%
Cc1ccc(NC(=O)CCS(=O)(=O)c2ccc3nc(C)sc3c2)cc1 -5.93%
O=C(NCc1ccccc1)C1=C[C@@H](c2ccc3c(c2)OCO3)C[C@@H](OCc2ccc(CO)cc2)O1 -7.71%
CCN(C(=O)c1cc(S(=O)(=O)N2CCCCC2)c[nH]1)c1ccc(OC)cc1 -10.8%
COC(=O)c1cccc(S(=O)(=O)N2CCOCC2)c1 -21.7%
C=CC[C@@H](CC(=O)N[C@@H](CO)Cc1ccccc1)C(=O)N[C@H](COC(=O)[C@@H](CC=C)Cc1ccc(F)cc1)Cc1ccccc1 7.92%
O=C(Cn1cccc1C(=O)c1ccccc1)NCc1ccc(Cl)cc1 4.08%
CCC(Oc1ccccc1)C(=O)Nc1nnc(S(=O)(=O)N2CCCC2)s1 (stereo not drawn) 5.97%
OCC[C@H]1C[C@@H](O)[C@H](O)[C@@]2(Cc3ccccc3CO2)O1 -4.36%
COc1cccc(NC(=O)CN2C(=O)COc3ccc(S(=O)(=O)N4CCOCC4)cc32)c1 0%
Cc1cccc(C(=O)Nc2nnc(S(=O)(=O)N3CCOCC3)s2)c1 2.12%
COc1ccccc1CNS(=O)(=O)c1c(C)nc2sccn2c1=O 7.73%
CC(=O)C[C@@H](O)CC(=O)[C@@H]1OC(=O)[C@H](C)C/C=C\Cc2ccccc21 3.65%
C[C@@H]1CC[C@]2(O[C@@H](CCO)C[C@H](O)[C@H]2O)O1 1.15%
COCCNC(=O)CCCN1C(=O)c2ccccc2Sc2ncccc21 -9.18%
O=C(c1cccc(C(F)(F)F)c1)C1CCCN(Cc2cccc(OCCO)c2)C1 (stereo not drawn) -6.07%
O=C(CCN1C(=O)/C(=C\c2ccccc2)SC1=S)NCCCN1CCOCC1 2.18%
Cc1ccc(-c2n[nH]c(=S)n2/N=C/C=C/c2ccccc2[N+](=O)[O-])cc1 -18.3%
COCCCNC(=O)CSc1c2c(nc3ccc(Cl)cc13)CCCC2 -11.6%
COc1ccc(N2CCN(C(=O)c3ccc(CS(=O)(=O)c4ccc(Br)cc4)o3)CC2)cc1 4.22%
CCc1nnc(NC(=O)c2nc(S(=O)(=O)Cc3ccc(C)cc3)ncc2Cl)s1 9.7%
CC(C)c1ccc(OCC(=O)NC(Cc2c[nH]c3ccccc23)C(=O)O)cc1 (stereo not drawn) 5.56%
CC(=O)N1CCOc2cc(S(=O)(=O)NC(C)c3ccccc3)c(Cl)cc21 (stereo not drawn) -21.2%
Cc1cc(-c2ccc(C)c(S(=O)(=O)NCc3cccc(Br)c3)c2)on1 -29.6%
C[C@@H]1CC[C@]2(O[C@H](CCO)C[C@H](O)[C@H]2O)O1 11%
CC[C@@H]1CCCCc2ccccc2[C@@H](C(=O)C[C@@H](O)CC(C)=O)OC1=O 15.8%
C=CC[C@@H](CC(=O)N[C@@H](CO)Cc1ccccc1)C(=O)N[C@@H](COC(=O)[C@@H](CC=C)Cc1ccc(F)cc1)Cc1ccccc1 -1.77%

Potency, active:
CC(=O)c1ccc(NC(=O)c2ccc(-c3nc(CSc4ccccc4)c(C)o3)cc2)cc1 10.3 µM
CC(=O)N1N=C(c2cccc(NS(=O)(=O)c3ccc(C)cc3)c2)CC1c1ccco1 (stereo not drawn) 23.1 µM
COc1ccc(/C=C2\CCCC3C2=NN(C(=O)COC(=O)CNC(=O)c2ccccc2)C3c2ccc(OC)cc2)cc1 (stereo not drawn) 13 µM
CCC(=O)Nc1ccc(C(=O)OCC(=O)c2ccc(C)c([N+](=O)[O-])c2)cc1 7.31 µM
COc1cc2ccnc(Cc3cccc(OC)c3OC)c2cc1OC 3.66 µM
O=C(CN1C2CCCC1CC(NC(=O)C1CCCCC1)C2)Nc1ccccc1C(F)(F)F (stereo not drawn) 23.1 µM
COc1ccc(CN(C)C(=O)CCC(=O)N2CCN(S(=O)(=O)c3ccc(Cl)cc3)CC2)c(OC)c1 11.6 µM
CC1CCN(C(=O)CSc2nnc3c(n2)[nH]c2ccccc23)CC1 8.2 µM
Cc1ccc(-c2noc(C3CCN(S(=O)(=O)c4ccc5c(c4)OCCO5)CC3)n2)o1 6.51 µM
CN(C)CCNC(=O)c1cc2c(s1)-c1ccc(Cl)cc1SC2 5.8 µM
Cc1ccc(NC(=O)NC(C)c2c(-n3cccc3)sc(C)c2C)c(C)c1 (stereo not drawn) 18.4 µM
Cc1cccc(C)c1-n1c(SCC(=O)N2CC(=O)Nc3ccccc32)nc2ccccc2c1=O 23.1 µM
Cc1nc(-c2ccc(NC(=O)c3ccco3)cc2)cs1 7.31 µM
COc1ccc(S(=O)(=O)N2CCN(C(=O)c3cc(-c4ccc(Br)cc4)n[nH]3)CC2)cc1OC 20.6 µM
Cc1ccc2nc(C(F)(F)F)c(C#N)c(N)c2c1 3.66 µM
COc1cccc(CN(C)C(=O)c2cc(S(=O)(=O)N3CCN(c4ccccc4)CC3)ccc2Cl)c1 20.6 µM
Cn1nc(C(=O)N2CCN(S(=O)(=O)c3ccc(Cl)cc3)CC2)c2ccccc2c1=O 23.1 µM
CCOc1cc(/C=C2\SC(=N)N(c3nccs3)C2=O)ccc1OCCN1CCOCC1 18.4 µM
COc1cccc(-c2cc(C(=O)Nc3c(C)nn(Cc4ccccc4Cl)c3C)no2)c1 6.51 µM
CC(=O)Nc1cc(OC(C)=O)c2nonc2c1OC(C)=O 14.6 µM

Potency, inactive and 8.2 µM (active):
CN1CCN(CCCN2c3ccccc3Sc3ccc(Cl)cc32)CC1

Reference: PubChem BioAssay AID504444 (National Center for Advancing Translational Sciences (NCATS), 2011)
